# According to PubChem BioAssay AID1768 (National Center for Advancing Translational Sciences (NCATS), 2009):
# About 620 (0.23%) of roughly 270,000 compounds were called active. Inconclusive means that the source gave no clear call. Such entries were picked first, then a sample of the others. The call rests on the fitted dose curve; in most records, active means well fitted inhibition curve with a large enough effect in the polarisation, with a control signal flat (not every such curve was filed as active); inconclusive means small, poorly fitted or top-dose-only effect, or effect the other way, or a change in a side signal; inactive means no such curve, though single readings can be large or run the other way; the % refers to the polarisation. Potencies beside an inconclusive call are fits to weak or partial responses and may not hold up. “Side channel” marks fits to a control or component signal instead of the main read-out.
# Molecular target: Menin (Homo sapiens) (UniProt O00255)
# Test: qHTS Assay for Inhibitors Targeting the Menin-MLL Interaction in MLL Related Leukemias: Competition With Texas Red Labeled MLL-derived Mutant Peptide; on FP activity change, negative = inhibition: % of control where 0% means no effect
# Details: fluorescence polarization; FP activity change, negative = inhibition: at 61.6 µM (top of the series)
# Potency means the concentration at half of the fitted maximal effect; tags describe the fitted curve by direction and shape or compound fluorescence and quenching.
# Sequence of UniProt O00255 (O00255 whole entry, looked up): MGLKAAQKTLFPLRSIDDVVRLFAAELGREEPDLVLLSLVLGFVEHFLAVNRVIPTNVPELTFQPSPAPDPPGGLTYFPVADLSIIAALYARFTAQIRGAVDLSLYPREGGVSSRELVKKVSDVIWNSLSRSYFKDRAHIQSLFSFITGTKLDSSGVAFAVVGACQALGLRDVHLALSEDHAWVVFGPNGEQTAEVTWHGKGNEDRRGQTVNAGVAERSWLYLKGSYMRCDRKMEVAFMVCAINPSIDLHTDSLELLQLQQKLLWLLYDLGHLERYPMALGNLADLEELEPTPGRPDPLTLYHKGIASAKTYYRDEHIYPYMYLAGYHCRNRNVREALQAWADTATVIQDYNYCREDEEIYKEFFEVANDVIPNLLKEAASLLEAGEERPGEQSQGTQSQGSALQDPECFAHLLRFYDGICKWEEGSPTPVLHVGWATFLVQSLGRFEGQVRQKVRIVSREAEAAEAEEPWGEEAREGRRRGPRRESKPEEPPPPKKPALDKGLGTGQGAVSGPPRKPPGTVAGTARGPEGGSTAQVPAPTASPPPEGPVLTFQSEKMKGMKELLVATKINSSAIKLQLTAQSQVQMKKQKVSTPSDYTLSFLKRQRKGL
Compound,Potency,"FP activity change, negative = inhibition"
O=C(Nc1cccc(NC(=O)c2sc3ccccc3c2Cl)c1)c1ccco1,"inconclusive: 28.2 µM [inhibitor, single point]",–
COC(=O)Nc1ccc2c(c1)Nc1ccccc1CC2,"inconclusive: 31.6 µM [quencher, side channel, single point]",–
CCN1CCc2c(C#N)c(NCc3ccccc3)nc(N(CC)CC)c2C1,"inconclusive: 3.16 µM [fluorescent, side channel, full curve]",–
COc1ccc(-c2nnn(CC(=O)c3c[nH]c4ccccc34)n2)cc1OC,"inconclusive: 20 µM [quencher, side channel, partial curve, poor fit]",–
Cc1nc2cnc(N3CCNCC3)nc2n(C2CC2)c1=O,–,inactive: 1.02%
Cc1ccccc1Cn1c(=O)sc2ccccc2c1=O,"inconclusive: 14.1 µM [inhibitor, partial curve]",–
CC(=O)c1c(C)nc(-c2ccc(Cl)cc2)nc1N,–,inactive: 11.7%
COc1ccc(S(=O)(=O)NNC(=O)c2cccs2)cc1,–,inactive: 1.56%
COc1ccc2cnn(CCOc3cc(C)ccc3C(C)C)c(=O)c2c1OC,"inconclusive: 28.2 µM [fluorescent, side channel, single point]",–
CC(=O)C1=C(O)C(=O)N(c2cc(C(C)(C)C)on2)C1c1ccc(Br)cc1 (stereo not given),"inconclusive: 28.2 µM [quencher, side channel, single point]",–
COC(=O)c1cc(NC(=O)Cc2cccs2)cc(C(=O)OC)c1,"inconclusive: 14.1 µM [quencher, side channel, partial curve]",–
Nc1nnc(SCCN2C(=O)c3ccccc3S2(=O)=O)s1,"inconclusive: 25.1 µM [inhibitor, single point]",–
COc1ccc(OC)c(NC(=O)COC(=O)c2cc3c(s2)CCC3)c1,"inconclusive: 31.6 µM [quencher, side channel, single point]",–
O=C(N/N=C/C1C(c2ccccc2)C1(Cl)Cl)c1cccc(Br)c1 (stereo not given),"inconclusive: 39.8 µM [inhibitor, single point]",–
Cc1cc(C)cc(NC(=O)CN2CCC(C(=O)c3ccccc3)CC2)c1,"inconclusive: 22.4 µM [inhibitor, partial curve, poor fit]",–
COc1ccc(NC2=NCC(=O)N2Cc2cccs2)cc1,–,inactive: 7.29%
N#CC1=C(N)Oc2cc(N)ccc2C1c1cccc(Br)c1 (stereo not given),"inconclusive: 25.1 µM [quencher, side channel, partial curve]",–
CCOC(=O)C1CCN(CC(=O)Nc2c(C(=O)OC)[nH]c3ccccc23)CC1,–,inactive: -5.68% [at 11.7 µM]
CN(Cc1c(C(=O)N/N=C/c2cccc(F)c2)nnn1-c1nonc1N)C1CCCCC1,"inconclusive: 31.6 µM [inhibitor, single point]",–
CC(C)(O)C#Cc1ccc(CN2CCC(CO)(CCc3ccccc3)CC2)cc1,–,inactive: 8.13%

Compound,Potency,"FP activity change, negative = inhibition"
O=C(O)/C(=C\c1ccc(-c2ccc(F)cc2)o1)c1ccccc1,"inconclusive: 22.4 µM [quencher, side channel, partial curve]",–
C[N+]1=C(/C=C/Nc2ccccc2Cl)C(C)(C)c2ccccc21,"inconclusive: 39.8 µM [fluorescent, side channel, single point]",–
CC[n+]1c(/C=C/N(C)c2ccccc2)oc2ccc(Cl)cc21,"inconclusive: 14.1 µM [inhibitor, partial curve, poor fit]",–
COc1ccccc1C(=O)OC1CCCN(C)C1 (stereo not given),"inconclusive: 3.16 µM [quencher, side channel, single point]",–
O=C(O)CCc1ccc(-c2ccc(Br)cc2)n1Cc1ccco1,"inconclusive: 39.8 µM [quencher, side channel, single point]",–
CC(C)c1ccc(NC(=O)Cc2c(C(=O)O)n(C)c3ccccc23)cc1,"inconclusive: 35.5 µM [quencher, side channel, single point]",–
CCCCOc1ccc(C(O)(CCC)CCN2CCOCC2)cc1 (stereo not given),–,inactive: 0.51%
Cc1ccccc1OCC(=O)NCCNC(=O)c1ccncc1,"inconclusive: 5.01 µM [inhibitor, single point]",–
CN1CCN(c2ncnc3ccc(-c4ccoc4)cc23)CC1,"inconclusive: 44.7 µM [inhibitor, partial curve]",–
COc1cccc(Nc2nnc(SCC(=O)Nc3sccc3C(N)=O)s2)c1,"inconclusive: 11.2 µM [quencher, side channel, partial curve]",–
Cc1sc2nc(CN3CCCC3)nc(N3CCC(C(N)=O)CC3)c2c1C,"inconclusive: 22.4 µM [fluorescent, side channel, single point]",–
COC(=O)C(C(C)=O)C(NC(=O)OC(C)(C)C)c1ccccc1 (stereo not given),–,inactive: 5.4%
COc1cccc(-n2nnc3c(=O)n(CC(=O)Nc4cc(C)on4)cnc32)c1,"inconclusive: 35.5 µM [fluorescent, side channel, single point]",–
Cc1cc(C2(c3ccc(O)c(C)c3)OC(=O)c3ccccc32)ccc1O,"inconclusive: 39.8 µM [quencher, side channel, single point]",–
Cc1cccc(-n2ncc3c(NCc4cccs4)ncnc32)c1,"inconclusive: 14.1 µM [quencher, side channel, partial curve]",–
CC(=O)c1cccc(Oc2ncccn2)c1,"inconclusive: 1.12 µM [inhibitor, full curve]",–
O=C(O)c1ccc(S(=O)(=O)c2ccc([N+](=O)[O-])cc2[N+](=O)[O-])cc1,"inconclusive: 20 µM [quencher, side channel, partial curve]",–
CCCCn1c(-c2cccc3ccccc23)nc2cc3[nH]c(=O)c(C(C)C)nc3cc21,"inconclusive: 11.2 µM [inhibitor, partial curve]",–
O=C(N/N=C/c1ccc[nH]1)c1sc2ccccc2c1Cl,"inconclusive: 11.2 µM [quencher, side channel, partial curve]",–
CCCc1nc(SCC(=O)N2CCOCC2)c2c(C)c(C)sc2n1,"inconclusive: 5.62 µM [quencher, side channel, single point]",–
